Variants at the background level are over-represented here.
B1: TPR 5TU (parent)
chain: GGAUCUUCUCGAUCUAACAAAAAAGACAAAUCUGCCACAAAGCUUGAGAGCAUCUUCGGAUGCAGAGGCGGCAGCCUUCGGUGGCGCGAUAGCGCCAACGUUCUCAACUAUGACACGCAAAACGCGUGCUCCGUUGAAUGGAGUUUAUCAUG

Variants of: B1
Experiment: polymerase ribozyme fitness, log enrichment relative to wild type (log ratio); higher = more active; in vitro selection for triplet polymerase activity
Outline: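 Each subunit of a heterodimeric triplet polymerase ribozyme was mutagenized into a library by PCR, transcribed, and subjected to one round of in vitro selection, run in triplicate. Libraries were annealed with a biotinylated primer, the partner subunit and triplets, incubated frozen at −7 °C, and extended constructs were gel-excised, captured on streptavidin beads and recovered by RT-PCR. Input and output libraries were sequenced on Illumina, keeping genotypes with ≥10 input reads and ≥1 read per output. Fitness is log base 2 of genotype enrichment divided by wild-type enrichment, from inverse-variance-weighted replicate averages.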

Variant	polymerase ribozyme fitness (log ratio)
A12U U15G C27U G59U G86U U135A A147G	≤ -4.2
A12U U15G C57A G62U G70C A89C C93A C123U G141A U144C	≤ -4.2
A12U U31G A39G U44G C54G C93U C105G C114A	≤ -4.2
A12U U31G A40C A49C A60G C93U	≤ -4.2
A12U U33A C35G C57A U77C U101C U134A	≤ -4.2
A12U U44G C76G C87A U134A	≤ -4.2
A12U U45A A64C C93A	≤ -4.2
A12U U45A C87U	≤ -4.2
A12U U45A G50A C69G C93U	≤ -4.2
A12U U45G A49C C57A C87A G92A A110U	≤ -4.2
A12U U53A C57U G92U C99A A120U A150G	≤ -4.2
A12U U53A C79G U90C A97C U139A U148C G152U	≤ -4.2
A12U U53G C69G C85U A107U	≤ -4.2
A12U U55A G141A	-1.32
A12U U55G A60U G83C A137U G141U	≤ -4.2
A12U U55G A142C	-1.46
A12U U55G U56G C79A C96U A113G G117A	≤ -4.2
A12U U56C G59A G88C	≤ -4.2
A12U U56G A89G C93A A113G	-3.89
A12U U82C G94C C108A A110G A113G G140U	≤ -4.2
A12U U102G	-3.28

Variant	polymerase ribozyme fitness (log ratio)
A12U U109G	-2.25
A12U U111C	-4
U13A	-0.225
U13A A16G A28G G48A C51U U135A U148C	≤ -4.2
U13A A16G G86U	-2.89
U13A A17G A49C A107G	≤ -4.2
U13A A17U C54U C75G C87G U104C A113U	≤ -4.2
U13A A17U C57G A91C C93A G94A A115G G124U G126C	≤ -4.2
U13A A17U U31G G59A C95U A110U G140U G141U	≤ -4.2
U13A A19C A29G A52C A115G G140U	≤ -4.2
U13A A20C A30C A49U C72U A91U	≤ -4.2
U13A A20G A28G G48A U146C	≤ -4.2
U13A A20U A22U G48C U55G C99A C114G U139A	≤ -4.2
U13A A20U C35A G50A G83C C118G A119U C132U	≤ -4.2
U13A A21C A40C C43U G67A G100C A142U A147G	≤ -4.2
U13A A21C U56A A60G G92U U102A C114U C123U	-3.84
U13A A22U A28U C36G A60U C85U C96U A115G	≤ -4.2
U13A A22U U53A G62C A64U U90A A91C C103A A106G C108U G126C	≤ -4.2
U13A A23G C27U A28C C54U C85U C93U A115C C116G A121G A150C	-3.82
U13A A23U G59A C87U	≤ -4.2
U13A A24C G68A C96G	≤ -4.2

Variant	polymerase ribozyme fitness (log ratio)
U13A A24U G58C G88U C105U U148A A150C	≤ -4.2
U13A A28U C43U G65A A106G	≤ -4.2
U13A A28U C57G C85G U127A	≤ -4.2
U13A A29C	≤ -4.2
U13A A29U U44A C72G C96U A97U	≤ -4.2
U13A A30U U33G G46A G86A A91U A119G	≤ -4.2
U13A A39U C54G C79U G81U G94U U139C G140U	≤ -4.2
U13A A39U U45A G59C C72U G94C U101A A142C	≤ -4.2
U13A A40G G68A	≤ -4.2
U13A A41G C85G A147G	-2.67
U13A A52U U135C	≤ -4.2
U13A A73G C87G	≤ -4.2
U13A A98U U148G	≤ -4.2
U13A C14A A47U G83U G128U	≤ -4.2
U13A C14A A49G G50A A113U	≤ -4.2
U13A C14U A60C C93G C103G A122G U130A C131A	≤ -4.2
U13A C27G G84A	≤ -4.2
U13A C27G U82G C96U A120G	≤ -4.2
U13A C32G A37U A52G G94A G128A U146G	≤ -4.2
U13A C32U A41C G88A A91G A97G G126U G141U	≤ -4.2
U13A C35U A41G C63U G80U C87A C103A G124U U148G	≤ -4.2

Variant	polymerase ribozyme fitness (log ratio)
U13A C35U C57U	-1.42
U13A C35U C85A A137U U151G	≤ -4.2
U13A C35U G42A C69G C93G	≤ -4.2
U13A C36A U55G C93G	≤ -4.2
U13A C38G C54A C76A C93G	≤ -4.2
U13A C43U C54G C72U G88C A142U U146A	≤ -4.2
U13A C69A A120C	-2.74
U13A C76G U90C G92U A97C U144C	≤ -4.2
U13A C76U C105G C114U	≤ -4.2
U13A C76U G80U G84U C85G C118A	≤ -4.2
U13A C85U A115C G128U	≤ -4.2
U13A C93G A97U G143A	≤ -4.2
U13A C105A A107C U134A	≤ -4.2
U13A G25A C51G A60G C85A C125A	≤ -4.2
U13A G25U C95U C123G C149A	≤ -4.2
U13A G42U U44G U55G C85A C87A C95A G100A	≤ -4.2
U13A G48U U56A G84A	-1.28
U13A G50A U55A A89C	-3.57
U13A G50C A52U U53A U55A A60G G70A U111G C125A A142C	≤ -4.2
U13A G50U C69G U78C A89U A120G	≤ -4.2

Reference: the RNAGym collection of RNA variant scans (doi:10.1073/pnas.2313332121)
